Experimental data taken from PubChem BioAssay AID1345082 (National Center for Advancing Translational Sciences (NCATS), 2018).
The campaign covered roughly 94,000 compounds. About 4,000 (4.3%) were called active. This list was built around the results that the source calls inconclusive (neither active nor inactive); the mix of calls is not that of the screen. The call rests on the fitted dose curve; in most records, active means well fitted inhibition curve with a large enough effect; inconclusive means small, poorly fitted or top-dose-only effect; inactive means no such curve, though single readings can be large or run the other way. Where the call is inconclusive, the potency comes from a doubtful curve fit.

assay: Cytotoxic Profiling in NIH 3T3 Cell Line of Diverse Libraries Using Quantitative High-Throughput Screening; details: NIH 3T3 viability, CellTiter-Glo ATP luminescence, 48-72 h; series mostly up to 96.7 µM; further: nearly all actives have a fitted effect of over 55% in size
Method in brief: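 Mouse fibroblast NIH 3T3 cells, 400 per well, received compound via pintool and were incubated for 48 or 72 hr prior to CellTiter-Glo ATP luminescence measurement.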
Potency means the concentration at half of the fitted maximal effect; tags describe the fitted curve by direction and shape.

| SMILES | Potency |
| --- | --- |
| Cc1nn(-c2ccc(F)cc2)c(Oc2ccccc2F)c1CCC(=O)NCC1CCCO1 (stereo not given) | inconclusive: 44.7 µM [inhibitor, partial curve, poor fit] |
| COc1ccc(CN2C(=O)[C@@H]3C[C@@H](CN3Cc3cccs3)Oc3ccccc32)cc1 | inconclusive: 63.1 µM [inhibitor, partial curve, poor fit] |
| Cc1cc(C)c(C)c(S(=O)(=O)N2CCC(c3c[nH]c4c(C)cccc34)CC2)c1C | inconclusive: 35.5 µM [inhibitor, partial curve] |
| COc1ccc(C(=O)Nc2ccc([C@H]3OCC(=O)N[C@@H]3CO)cc2)cc1 | inactive |
| Cc1cccc(OCC(=O)Nc2ccc(-c3nnc4n3CCCC4)cc2)c1 | inconclusive: 56.2 µM [inhibitor, partial curve, poor fit] |
| O=C1Nc2ccccc2CN(Cc2ccc(Cl)cc2)C12CCNC2 (stereo not given) | inconclusive: 28.2 µM [inhibitor, full curve, poor fit] |
| CC(=O)N1CC2(CCN(Cc3ncc[nH]3)CC2)CC1C(=O)O (stereo not given) | inactive |
| Cn1ncc2c(C(=O)NC3CCOC3)cc(-c3cccc(F)c3)nc21 (stereo not given) | inconclusive: 50.1 µM [inhibitor, partial curve, poor fit] |
| O=C(CN1C(=O)NC(c2ccc(Cl)cc2)C2=C1COC2=O)Nc1ccc(C(F)(F)F)cc1 (stereo not given) | active: 22.4 µM |
| COc1ccc(Cn2c(-c3ccc(Cl)cc3)nc(C)c(CCO)c2=O)cc1F | inconclusive: 44.7 µM [inhibitor, partial curve, poor fit] |
| O=C(NCc1ccccc1)c1ccccc1OC1CN(Cc2cccc(F)c2F)C1 | active: 20 µM |
| O=C1Nc2ccccc2C12CCN(S(=O)(=O)c1ccccc1)C2 (stereo not given) | inconclusive: 8.91 µM [inhibitor, full curve, poor fit] |
| O=C(CNC(=O)c1cccc(-c2ccsc2)c1)NCc1ccc(C(F)(F)F)cc1 | inactive |
| Cc1ccsc1CN1CCCCCCNC(=O)CC1c1ccccc1 (stereo not given) | inactive |
| O=C(Nc1cccc(F)c1)c1cnc(-c2ccc(F)cc2)nc1-c1ccncc1 | inconclusive: 11.2 µM [inhibitor, full curve] |
| O=C1NCCN2CC3(CCN(C(=O)CCc4ccccc4)CC3)CC12 (stereo not given) | inactive |
| CC(C)CNC(=O)c1ccc2c(c1)N(S(=O)(=O)c1ccccc1F)CC2 | inconclusive: 44.7 µM [inhibitor, partial curve, poor fit] |
| Cc1ccc(C(=O)N2CCC(c3n[nH]c(=O)n3-c3ccc(C)cc3)CC2)cc1 | inconclusive: 11.2 µM [inhibitor, full curve, poor fit] |
| O=C(NCCC1=CCCCC1)c1c(-c2cncnc2)cc(=O)n2c1CCCC2 | inconclusive: 50.1 µM [inhibitor, partial curve, poor fit] |
| Cc1ccc(NC(=O)N2CCc3c(C(=O)N(C)C)cccc32)cc1 | inconclusive: 50.1 µM [inhibitor, partial curve, poor fit] |
| O=C(NC1CCN(c2cc(-c3ccccc3)[nH]n2)CC1)c1ccccc1Cl | inconclusive: 39.8 µM [inhibitor, partial curve, poor fit] |
| CC(C)[C@H]1CN(CCS(C)(=O)=O)C[C@@H]1NC(=O)CCn1cncn1 | inactive |

| SMILES | Potency |
| --- | --- |
| COc1ccc(-c2cc(N3CCN(C(=O)c4ccc(C)nc4)CC3)n[nH]2)cc1 | inconclusive: 28.2 µM [inhibitor, full curve] |
| Cc1noc(C)c1CCC(=O)N1CCn2nc(Cc3ccccc3)cc2C1 | inconclusive: 56.2 µM [inhibitor, partial curve, poor fit] |
| C[C@@H]1CN(C(=O)c2ccc3c(c2)NC(C)(COc2ccc4[nH]ccc4c2)CO3)C[C@H](C)O1 (stereo not given in full) | inconclusive: 89.1 µM [inhibitor, single point] |
| COCCCNC(=O)c1nc2cccnc2n(C2CC2)c1=O | inactive |
| O=C1CC(c2ccccc2)N(C(=O)CNC(=O)c2ccc3[nH]ccc3c2)CCCCCN1 (stereo not given) | inactive |
| CCCNC(=O)[C@@H]1Cc2c[nH]c3cccc(c23)[C@H](CC(C)C)N1 | inconclusive: 89.1 µM [inhibitor, partial curve, poor fit] |
| N[C@H](C(=O)N1CCC2(CC1)C(=O)NCN2C(=O)c1ccc(Cl)cc1)c1ccccc1 | inactive |
| CCCCc1ncc(CN(C)CC2CCCN(CCc3ccc(F)cc3)C2)[nH]1 (stereo not given) | inconclusive: 56.2 µM [inhibitor, partial curve, poor fit] |
| COc1ccc(CN2C(=O)COC[C@H]2C(=O)NCc2ccc(F)cc2F)cc1 | inactive |
| CCC1(CC)CC1C(=O)N1CCc2onc(-c3cccc(F)c3)c2C1 (stereo not given) | inconclusive: 50.1 µM [inhibitor, partial curve, poor fit] |
| C[C@@H]1CN(C(=O)CN2CCN(c3ncccn3)CC2)C[C@@]1(O)C1CCC1 | inactive |
| Cc1noc2c(-c3cn[nH]c3)cc(-c3ccc(F)cc3)nc12 | inconclusive: 20 µM [inhibitor, full curve, poor fit] |
| CC(C)COC(=O)N1CCCn2nc(-c3nc4ccccc4n3C)cc2C1 | inconclusive: 79.4 µM [inhibitor, single point] |
| O=C1[C@@H]2C[C@@H](CN2Cc2ccccn2)Oc2ccccc2N1CC1CC1 | inconclusive: 79.4 µM [inhibitor, partial curve, poor fit] |
| CC1CCC2(CC1)NC(=O)N(CC(=O)NC1CCCCC1)C2=O (stereo not given) | inconclusive: 63.1 µM [inhibitor, partial curve, poor fit] |
| COc1ccc(CNC(=O)c2cccc3c2CCN3C(=O)c2ccc(F)cc2)cc1OC | active: 39.8 µM |
| CNC(=O)c1ccc(Cl)c(NC(=O)N[C@H]2CN(C(C)C)C[C@@H]2OC)c1 | inactive |
| O=C(NCc1cccnc1)[C@@H]1C[C@@H](O)CN1C1CCN(C(=O)CCC2CCCC2)CC1 | inactive |
| O=C1Nc2ccccc2C12CCN(Cc1ccccc1)C2 (stereo not given) | inactive |
| Cc1ccccc1C(=O)N1CCC2(CC1)N(C)C(=O)CS2(=O)=O | inactive |
| CC(C)c1nncn1C1CCN(S(=O)(=O)c2ccc(Br)s2)CC1 | inconclusive: 50.1 µM [inhibitor, partial curve, poor fit] |
| COCCN1CCCCC(CC(=O)Nc2ccc(C)c(F)c2)C1=O (stereo not given) | inactive |

| SMILES | Potency |
| --- | --- |
| Cc1cccc(C(=O)Nc2ccc3ncnc(N4CCCCC4)c3c2)c1 | inconclusive: 50.1 µM [inhibitor, partial curve, poor fit] |
| O=C(c1cccc2[nH]ccc12)N1CC[C@@H]2COCCN(Cc3ccncc3)[C@@H]2C1 | inconclusive: 44.7 µM [inhibitor, partial curve, poor fit] |
| O=S(=O)(NC1CCc2nnc(C3CC3)n2CC1)c1cccs1 (stereo not given) | inactive |
| CC(Cc1ccncc1)Nc1nccc(-c2cnn(-c3ccccc3F)c2)n1 (stereo not given) | inconclusive: 50.1 µM [inhibitor, partial curve, poor fit] |
| COc1ccc(NC(=O)N2CC3CN(C)CC(C2)O3)cc1 | inactive |
| Cc1ccc(-n2c(C3CCN(C(=O)Cc4ccccc4F)CC3)n[nH]c2=O)cc1 | inconclusive: 7.08 µM [inhibitor, full curve, poor fit] |
| COc1ccc(-c2nn(-c3ccccc3)cc2CN2CCN3CCCC3C2)c(F)c1 (stereo not given) | inconclusive: 79.4 µM [inhibitor, partial curve] |
| C=CCOc1cccc(-c2nc(C(=O)Nc3ccccc3)cs2)c1 | inconclusive: 50.1 µM [inhibitor, single point] |
| C[C@H]1[C@@H]2[C@@H](O)C([C@H](C)C(=O)N3CCc4ccccc4C3)CC[C@@]2(C)CC[C@@H]1NC(=O)c1cnccn1 (stereo not given in full) | inconclusive: 70.8 µM [inhibitor, single point] |
| CCCNC1(Cc2cc(C(=O)N3CCCCC3)on2)COC1 | inactive |
| N#Cc1ccc(-c2nc(C(=O)NC3CCCCC3)no2)cc1 | inactive |
| Cn1cccc1CN1CCC2(CC1)CC(=O)c1ccccc1O2 | inconclusive: 63.1 µM [inhibitor, partial curve, poor fit] |
| Cc1ccccc1Oc1c(CCC(=O)N2CCSCC2)c(C)nn1-c1ccc(F)cc1 | inconclusive: 50.1 µM [inhibitor, partial curve, poor fit] |
| N#Cc1cccc(CN2CC[C@@H]3OCC(=O)N(Cc4ccccc4)[C@H]3CC2)c1 | inconclusive: 63.1 µM [inhibitor, partial curve, poor fit] |
| COc1ccccc1N1CCN(C(=O)C[C@@H]2CCNC[C@@H]2Cc2cc(-c3ccccc3)on2)CC1 | inconclusive: 56.2 µM [inhibitor, partial curve, poor fit] |
| CCCCn1c(=O)c(C(=O)N2CCN(C(=O)c3ccc(Cl)nc3)CC2)nc2cccnc21 | inactive |
| O=C(c1ccccc1Cl)N1CCC2(CC1)CCN(CCc1ccccc1)c1ccccc1O2 | inconclusive: 39.8 µM [inhibitor, partial curve] |
| COc1ccccc1Nc1ccnc(N2CCC(NC(=O)C3CCCC3)CC2)n1 | inconclusive: 39.8 µM [inhibitor, partial curve] |
| O=C(CCC1CCCN(CCCn2cccn2)C1)Nc1ccc(C(F)(F)F)cc1 (stereo not given) | inconclusive: 79.4 µM [inhibitor, partial curve, poor fit] |
| O=C(NCc1cccc2ccccc12)C1(c2ccc(Cl)cc2)CCOCC1 | inconclusive: 50.1 µM [inhibitor, partial curve, poor fit] |
| Cc1cc(CN(C)C(=O)c2cc(COc3ccc(F)cc3F)on2)n[nH]1 | inconclusive: 56.2 µM [inhibitor, partial curve, poor fit] |
